This assay deals with T1, cynomolgus monkey 4-1BB (cynomolgus monkey).
T1 chain: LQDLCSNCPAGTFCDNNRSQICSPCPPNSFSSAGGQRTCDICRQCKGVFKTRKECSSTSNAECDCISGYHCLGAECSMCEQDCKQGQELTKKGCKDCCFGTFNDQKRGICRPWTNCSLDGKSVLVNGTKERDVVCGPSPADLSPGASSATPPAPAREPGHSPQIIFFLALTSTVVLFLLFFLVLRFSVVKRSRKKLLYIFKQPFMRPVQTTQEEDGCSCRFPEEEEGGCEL
The assay can be described thus: flow cytometry.

B1: B7-H4×4-1BB bispecific antibody PR004281 (bispecific antibody)
light: EIVMTQSPATLSVSPGERATLSCRASQSISSNLGWYQQKPGQAPRLLIYGASTRATGIPARFSGSGSGTEFTLTISSLQSEDFAVYYCQQYQSWPPLTFGGGTKVEIKRTVAAPSVFIFPPSDEQLKSGTASVVCLLNNFYPREAKVQWKVDNALQSGNSQESVTEQDSKDSTYSLSSTLTLSKADYEKHKVYACEVTHQGLSSPVTKSFNRGEC
heavy: QVQLVESGGGVVQPGRSLRLSCAASGFTFRSFGMHWVRQAPGKGLEWVAVISYDASNEYYADSVKGRFIISRDNSKDTLYLQMNSLRAGDTAVYYCAKGGGLRWYFAYWGQGTLVTVSSASTKGPSVFPLAPSSKSTSGGTAALGCLVKDYFPEPVTVSWNSGALTSGVHTFPAVLQSSGLYSLSSVVTVPSSSLGTQTYICNVNHKPSNTKVDKKV[human IgG1 Fc with changes not given here]EVQLLESGGGLVQPGGSLRLSCAASGFTFSNYAMSWFRQPPETGLKWVSSIDASGGDTYYADSVKGRFTISRDNSKNTLYLQMNSLRAEDTAVYYCAKEGSHGTDDSHYDVDVWGQGTTVTVSS
In the case of B1, the concentration giving a half-maximal response (EC50) was 2.63 nM.

B2: B7-H4×4-1BB bispecific antibody PR004282 (bispecific antibody)
light: B1 light
heavy: QVQLVESGGGVVQPGRSLRLSCAASGFTFRSFGMHWVRQAPGKGLEWVAVISYDASNEYYADSVKGRFIISRDNSKDTLYLQMNSLRAGDTAVYYCAKGGGLRWYFAYWGQGTLVTVSSASTKGPSVFPLAPSSKSTSGGTAALGCLVKDYFPEPVTVSWNSGALTSGVHTFPAVLQSSGLYSLSSVVTVPSSSLGTQTYICNVNHKPSNTKVDKKV[human IgG1 Fc with changes not given here]GGSGGSEVQLLESGGGLVQPGGSLRLSCAASGFTFSNYAMSWFRQPPETGLKWVSSIDASGGDTYYADSVKGRFTISRDNSKNTLYLQMNSLRAEDTAVYYCAKEGSHGTDDSHYDVDVWGQGTTVTVSS
With B2, the EC50 was 2.85 nM.

Source of the values: patent US20250326843A1 (published 2025).
